According to patent US9046519 (RSR, dated 2015):
Like-named read-outs stand apart in the source and are kept apart here. Values belong to the binder of their own block, whether it stands above or below them.

Columns and labels:
Assay in all cases: Scatchard, 125I-ligand, solubilised TSHR on tubes
[1] = molecular target: T1, porcine TSH (RSR Ltd, 70 units per mg) (porcine, UniProt P01219 part only; P01224 part only)
Method: (§1) Firstly, dilution profiles of each TSHR preparation were set up. In these experiments, plastic tubes (Maxisorp Star; NUNC) were coated overnight at 4° C. with 200 µL of a mouse monoclonal antibody to the TSHR C-terminus at 10 µg/mL in coating buffer (0.1 mmol/L Na_2CO$_3$ pH 9.2). After washing and post-coating (10 mg/mL of BSA in water) the tubes were washed with assay buffer (10 mmol/L Tris-HCl pH 7.8, 50 mmol/L NaCl and 1 mg/mL BSA) containing 0.1% Triton X-100. In the next step, 200 µL of solubilized wild type or mutated TSHR preparations were added to the tubes and incubated overnight at 4 C. […] After aspiration of the solutions, the tubes were washed and counted in a gamma counter.

[2] = molecular target: T1, porcine TSH (RSR Ltd, 70 units per mg); remark: listed apart in the source
Method: as §1

[3] = molecular target: T1, porcine TSH (RSR Ltd, 70 units per mg); remark: listed apart in the source

B1: TSHR Asp203 to Ala (receptor)
chain: not shown
notes: whole, on cells; as m1; also called Asp203 mutated to Ala
Ka [1]: 2.2e+09 M⁻¹
Ka [2]: 1.9e+09 M⁻¹

B2: TSHR Tyr185 to Ala and Lys183 to Ala (receptor)
chain: not shown
notes: whole, on cells; as m1
Ka [3]: 1.39e+10 M⁻¹

B3: TSHR Arg255 to Ala (receptor)
chain: not shown
notes: whole, on cells; as m1; also called Arg255 mutated to Ala
Ka [1]: 2.3e+09 M⁻¹
Ka [2]: 1.9e+09 M⁻¹

B4: TSHR Asp276 to Ala (receptor)
chain: not shown
notes: whole, on cells; as m1; also called Asp276 mutated to Ala
Ka [1]: 5.5e+09 M⁻¹
Ka [2]: 3.4e+09 M⁻¹

B5: TSHR Ser281 to Ala (receptor)
chain: not shown
notes: whole, on cells; as m1; also called Ser281 mutated to Ala
Ka [1]: 3.4e+09 M⁻¹
Ka [2]: 3.4e+09 M⁻¹

B6: TSHR Asp43 to Ala (receptor)
chain: not shown
notes: whole, on cells; as m1; also called Asp43 mutated to Ala
Ka [1]: 3.4e+09 M⁻¹
Ka [2]: 3.1e+09 M⁻¹

B7: TSHR Lys58 to Ala (receptor)
chain: not shown
notes: whole, on cells; as m1
Ka [1]: 5.9e+09 M⁻¹

B8: TSHR Ile60 to Ala (receptor)
chain: not shown
notes: whole, on cells; as m1
Ka [1]: 5.1e+09 M⁻¹

B9: TSHR Glu61 to Ala (receptor)
chain: not shown
notes: whole, on cells; as m1; also called Glu61 mutated to Ala
Ka [1]: 2.4e+09 M⁻¹
Ka [2]: 2.7e+09 M⁻¹

B10: TSHR Arg80 to Ala (receptor)
chain: not shown
notes: whole, on cells; as m1
Ka [1]: 4.2e+09 M⁻¹

B11: TSHR Arg80 to Asp (receptor)
chain: not shown
notes: whole, on cells; as m1
Ka [1]: 2.8e+09 M⁻¹

B12: TSHR Tyr82 to Ala (receptor)
chain: not shown
notes: whole, on cells; as m1
Ka [1]: 4e+09 M⁻¹

B13: TSHR Glu107 to Ala (receptor)
chain: not shown
notes: whole, on cells; as m1
Ka [1]: 3.7e+09 M⁻¹

B14: TSHR Arg109 to Ala (receptor)
chain: not shown
notes: whole, on cells; as m1
Ka [1]: 1.1e+09 M⁻¹

B15: TSHR Lys129 to Ala (receptor)
chain: not shown
notes: whole, on cells; as m1
Ka [1]: 2.2e+09 M⁻¹

B16: TSHR Phe130 to Ala (receptor)
chain: not shown
notes: whole, on cells; as m1
Ka [1]: 2.4e+09 M⁻¹

B17: TSHR Phe134 to Ala (receptor)
chain: not shown
notes: whole, on cells; as m1
Ka [1]: 2.1e+09 M⁻¹

B18: TSHR Glu178 to Ala (receptor)
chain: not shown
notes: whole, on cells; as m1; also called Glu178 mutated to Ala
Ka [1]: 1e+09 M⁻¹
Ka [2]: 9e+08 M⁻¹

B19: TSHR Lys183 to Ala (receptor)
chain: not shown
notes: whole, on cells; as m1
Ka [1]: 1.6e+10 M⁻¹

B20: TSHR Tyr185 to Ala (receptor)
chain: not shown
notes: whole, on cells; as m1
Ka [1]: 3.4e+09 M⁻¹

B21: TSHR Glu251 to Ala (receptor)
chain: not shown
notes: whole, on cells; as m1
Ka [1]: 2e+09 M⁻¹

B22: TSHR Glu157 to Ala (receptor)
chain: not shown
notes: whole, on cells; as m1; also called Glu157 mutated to Ala
binding result [2]: no binding

B23: TSHR Glu107 to Arg (receptor)
chain: not shown
notes: whole, on cells; as m1
binding result [1]: no binding

B24: TSHR Arg109 to Asp (receptor)
chain: not shown
notes: whole, on cells; as m1
binding result [1]: no binding

B25: TSHR Asp232 to Ala (receptor)
chain: not shown
notes: whole, on cells; as m1; also called Asp232 mutated to Ala
binding result [2]: no binding

Next, values leading:

binding result [1]: no binding
B26: TSHR Lys129 to Asp (receptor)
chain: not shown
notes: whole, on cells; as m1

binding result [1]: no binding
B27: TSHR Asp160 to Ala (receptor)
chain: not shown
notes: whole, on cells; as m1

binding result [1]: no binding
B28: TSHR Lys183 to Asp (receptor)
chain: not shown
notes: whole, on cells; as m1

binding result [1]: no binding
B29: TSHR Tyr206 to Ala (receptor)
chain: not shown
notes: whole, on cells; as m1

binding result [1]: no binding
B30: TSHR Lys209 to Ala (receptor)
chain: not shown
notes: whole, on cells; as m1

binding result [1]: no binding
B31: TSHR Asp232 to Arg (receptor)
chain: not shown
notes: whole, on cells; as m1

binding result [1]: no binding
B32: TSHR Lys250 to Ala (receptor)
chain: not shown
notes: whole, on cells; as m1

binding result [1]: no binding
B33: TSHR Arg255 to Asp (receptor)
chain: not shown
notes: whole, on cells; as m1; also called TSHR with Arg255 mutated to Asp; Arg255 Asp mutation

binding result [1]: no binding
B34: TSHR Thr257 to Ala (receptor)
chain: not shown
notes: whole, on cells; as m1

binding result [2]: no binding
B35: TSHR Trp258 to Ala (receptor)
chain: not shown
notes: whole, on cells; as m1; also called Trp258 mutated to Ala

binding result [1]: no binding
B36: TSHR Arg274 to Ala (receptor)
chain: not shown
notes: whole, on cells; as m1

binding result [1]: no binding
B37: TSHR Tyr279 to Ala (receptor)
chain: not shown
notes: whole, on cells; as m1

binding result [1]: no binding
B38: TSHR Arg255 to Ala and Trp258 to Ala (receptor)
chain: not shown
notes: whole, on cells; as m1

binding result [3]: no binding
B39: TSHR Asp232 to Ala and Arg255 to Ala (receptor)
chain: not shown
notes: whole, on cells; as m1

binding result [3]: no binding
B40: TSHR Asp232 to Arg and Arg255 to Asp (receptor)
chain: not shown
notes: whole, on cells; as m1

binding result [3]: no binding
B41: TSHR Asp232 to Ala and Trp258 to Ala (receptor)
chain: not shown
notes: whole, on cells; as m1

binding result [3]: no binding
B42: TSHR Glu157 to Ala and Asp203 to Ala (receptor)
chain: not shown
notes: whole, on cells; as m1

binding result [3]: no binding
B43: TSHR Glu178 to Ala and Asp203 to Ala (receptor)
chain: not shown
notes: whole, on cells; as m1

binding result [3]: no binding
B44: TSHR Trp258 to Ala and Lys183 to Ala (receptor)
chain: not shown
notes: whole, on cells; as m1

binding result [3]: no binding
B45: TSHR Trp258 to Ala and Tyr185 to Ala (receptor)
chain: not shown
notes: whole, on cells; as m1

binding result [3]: no binding
B46: TSHR Arg255 to Ala and Lys183 to Ala (receptor)
chain: not shown
notes: whole, on cells; as m1

binding result [3]: no binding
B47: TSHR Arg255 to Ala and Tyr185 to Ala (receptor)
chain: not shown
notes: whole, on cells; as m1
